Assay results reported in patent EP0103381B1, “Substituted anthra(1,9-cd)pyrazol-6(2H)-ones” (WARNER-LAMBERT COMPANY, priority 1982, dated 1984).
“And” between values parts separate entries of the source, which are not always exact repeats. Identical values can stand only once. At least one read-out could not be matched to a standard name with certainty.

Tested on: lymphocytic leukemia P388
Assay: in vivo lymphocytic leukemia P388 test
Parameters: species or system mice
Conditions: two single doses four days apart
Procedure: The in vivo lymphocytic leukemia P388 test is carried out by the United States National Cancer Institute. The animals used are either male or female CD2F, mice. There are six to seven animals per test group. The tumor transplant is by intraperitoneal injection of dilute ascitic fluid containing cells of lymphocytic leukemia P388. The test compounds are administered intraperitoneally in two single doses with a four-day interval between doses at various dose levels following tumor inoculation. The animals are weighed and survivors are recorded on a regular basis for 30 days. A ratio of survival time for treated (T)/ control (C) animals is calculated. The criterion for efficacy is T/C x 100 > 125%. The positive control compound in this test is 1,4-dihydroxy-5,8-[bis[[2-[(2-hydroxyethyl)amino]-ethyl]amino]-9,10-anthracene- dione given at dosages ranging from 12.0 to 0.075 mg/kg. See Cancer Chemotherapy Reports, Part 3, 3, 1 (1972) for a comprehensive discussion of the protocol.

With `O=C1c2ccccc2-c2nn(CCNCCO)c3ccc(NCCNCCO)c1c23` [Example 21, 2-[2-[(2-Hydroxyethyl)amino]ethyl]-5-[[2-[(2-hydroxyethyl)amino]ethyl]amino]anthra[1,9-cd]pyrazol-6(2H)-one] the “T/C × 100 (Percent)” value (P388, Dose 1.56 mg/kg intraperitoneally, listed as H, (CH2)2NH(CH2)2OH ·CH3CO2H, NH(CH2)2NH(CH2)2OH, 1.56 mg/kg) was 142%, the “T/C × 100 (Percent)” value (P388, Dose 3.12 mg/kg intraperitoneally, listed as H, (CH2)2NH(CH2)2OH ·CH3CO2H, NH(CH2)2NH(CH2)2OH, 3.12 mg/kg) was 138% and 150% and 166% and the “T/C × 100 (Percent)” value (P388, Dose 6.25 mg/kg intraperitoneally, listed as H, (CH2)2NH(CH2)2OH ·CH3CO2H, NH(CH2)2NH(CH2)2OH, 6.25 mg/kg) was 157% and 166%. For the same molecule, the “T/C × 100 (Percent)” value (P388, Dose 12.5 mg/kg intraperitoneally, listed as H, (CH2)2NH(CH2)2OH ·CH3CO2H, NH(CH2)2NH(CH2)2OH, 12.5 mg/kg) was 148% and 189% and 166% and the “T/C × 100 (Percent)” value (P388, Dose 25 mg/kg intraperitoneally, listed as H, (CH2)2NH(CH2)2OH ·CH3CO2H, NH(CH2)2NH(CH2)2OH, 25 mg/kg) was 185%.

In the case of `NCCCCCNc1ccc2c3c(nn2CCNCCO)-c2c(O)ccc(O)c2C(=O)c13` [Example 60, 5-[(5-Aminopentyl)amino]-7,10-dihydroxy-2-[2-[(2-hydroxyethyl)amino]ethyl]anthra[1,9-cd]pyrazol-6(2H)-one], the “T/C × 100 (Percent)” value (P388, Dose 50 mg/kg intraperitoneally, listed as 7,10-(OH)2, (CH2)2NH(CH2)2OH·2HCl, NH(CH2)5NH2, 50 mg/kg) was 139%.

`NCCNc1ccc2c3c(nn2CCNCCO)-c2ccccc2C(=O)c13` [Example 22, 5-[(2-Aminoethyl)amino]-2-[2-[(2-hydroxyethyl)amino]ethyl]anthra[1,9-cd]pyrazol-6(2H)-one] was tested, and the “T/C × 100 (Percent)” value (P388, Dose 3.12 mg/kg intraperitoneally, listed as H, (CH2)2NH(CH2)2OH·2HCl, NH(CH2)2NH2, 3.12 mg/kg) was 173%, the “T/C × 100 (Percent)” value (P388, Dose 6.25 mg/kg intraperitoneally, listed as H, (CH2)2NH(CH2)2OH·2HCl, NH(CH2)2NH2, 6.25 mg/kg) was 146% and 180% and the “T/C × 100 (Percent)” value (P388, Dose 12.5 mg/kg intraperitoneally, listed as H, (CH2)2NH(CH2)2OH·2HCl, NH(CH2)2NH2, 12.5 mg/kg) was 180%.

For `CN(C)CCNCCNc1ccc2c3c(nn2CCNCCO)-c2c(O)ccc(O)c2C(=O)c13` [Example 63], the “T/C × 100 (Percent)” value (P388, Dose 3.12 mg/kg intraperitoneally, listed as 7,10-(OH)2, (CH2)2NH(CH2)2OH·2HCl, NH(CH2)2NH(CH2)2N (Me)2, 3.12 mg/kg) was 163%, the “T/C × 100 (Percent)” value (P388, Dose 6.25 mg/kg intraperitoneally, listed as 7,10-(OH)2, (CH2)2NH(CH2)2OH·2HCl, NH(CH2)2NH(CH2)2N (Me)2, 6.25 mg/kg) was 172% and the “T/C × 100 (Percent)” value (P388, Dose 12.5 mg/kg intraperitoneally, listed as 7,10-(OH)2, (CH2)2NH(CH2)2OH·2HCl, NH(CH2)2NH(CH2)2N (Me)2, 12.5 mg/kg) was 157% and 179% and 188%. The “T/C × 100 (Percent)” value (P388, Dose 25 mg/kg intraperitoneally, listed as 7,10-(OH)2, (CH2)2NH(CH2)2OH·2HCl, NH(CH2)2NH(CH2)2N (Me)2, 25 mg/kg) was 207% and 228% and 129% and the “T/C × 100 (Percent)” value (P388, Dose 50 mg/kg intraperitoneally, listed as 7,10-(OH)2, (CH2)2NH(CH2)2OH·2HCl, NH(CH2)2NH(CH2)2N (Me)2, 50 mg/kg) was 200% and 254%.

`CNCCNc1ccc2c3c(nn2CCNCCO)-c2c(O)ccc(O)c2C(=O)c13` [Example 70, 7,10-Dihydroxy-2-[2-[(2-hydraxyethyl)amino]ethyl]-5-[[2-(methylamino)ethyl]amino]anthra[1,9-cd]pyrazol-6(2H)-one] was tested, and the “T/C × 100 (Percent)” value (P388, Dose 3.12 mg/kg intraperitoneally, listed as 7,10-(OH)2, CH2CH2NHCH2CH2OH °CH3CO2H·HBr, NHCH2CH2NHCH3, 3.12 mg/kg) was 268% and 177%, the “T/C × 100 (Percent)” value (P388, Dose 6.25 mg/kg intraperitoneally, listed as 7,10-(OH)2, CH2CH2NHCH2CH2OH °CH3CO2H·HBr, NHCH2CH2NHCH3, 6.25 mg/kg) was 275% and the “T/C × 100 (Percent)” value (P388, Dose 12.5 mg/kg intraperitoneally, listed as 7,10-(OH)2, CH2CH2NHCH2CH2OH °CH3CO2H·HBr, NHCH2CH2NHCH3, 12.5 mg/kg) was 275%.

`NCCCCNc1ccc2c3c(nn2CCNCCO)-c2c(O)ccc(O)c2C(=O)c13` [Example 59, 5-[(4-Aminobutyl)amino]-7,10-dihydroxy-2-[2-[(2-hydroxyethyl)amino]ethyl]anthra[1,9-cd]pyrazol-6(2H)-one] was tested, and the “T/C × 100 (Percent)” value (P388, Dose 12.5 mg/kg intraperitoneally, listed as 7,10-(OH)2, (CH2)2NH(CH2)2OH·HCl, NH(CH2)4NH2, 12.5 mg/kg) was 145%, the “T/C × 100 (Percent)” value (P388, Dose 25 mg/kg intraperitoneally, listed as 7,10-(OH)2, (CH2)2NH(CH2)2OH·HCl, NH(CH2)4NH2, 25 mg/kg) was 152% and the “T/C × 100 (Percent)” value (P388, Dose 50 mg/kg intraperitoneally, listed as 7,10-(OH)2, (CH2)2NH(CH2)2OH·HCl, NH(CH2)4NH2, 50 mg/kg) was 139% and 165%. The “T/C × 100 (Percent)” value (P388, Dose 100 mg/kg intraperitoneally, listed as 7,10-(OH)2, (CH2)2NH(CH2)2OH·HCl, NH(CH2)4NH2, 100 mg/kg) was 173%.

In the case of `CN(C)CCNCCNc1ccc2c3c(nn2CCN)-c2c(O)ccc(O)c2C(=O)c13` [Example 74, 2-[2-Aminoethyl)-5-[[2-[[2-(dimethylamino)ethyl]amino]ethyl]amino]-7,10-dihydroxyanthra[1,9-cd]pyrazol-6(2H)-one], the “T/C × 100 (Percent)” value (P388, Dose 12.5 mg/kg intraperitoneally, listed as 7,10-(OH)2, CH2CH2NH2·3.3HCl, NHCH2CH2NHCH2CH2NMe2, 12.5 mg/kg) was 167% and the “T/C × 100 (Percent)” value (P388, Dose 25 mg/kg intraperitoneally, listed as 7,10-(OH)2, CH2CH2NH2·3.3HCl, NHCH2CH2NHCH2CH2NMe2, 25 mg/kg) was 177%.

In the case of `NCCNc1ccc2c3c(nn2CCO)-c2c(O)ccc(O)c2C(=O)c13` [Example 37, 5-[(2-Aminoethyl)amino]-7,10-dihydroxy-2-(2-hydroxyethyl)anthra[1,9-cd]pyrazol-6(2H)-one], the “T/C × 100 (Percent)” value (P388, Dose 12.5 mg/kg intraperitoneally, listed as 7,10-(OH)2, (CH2)2OH·2HCl, NH(CH2)2NH2, 12.5 mg/kg) was 151%, the “T/C × 100 (Percent)” value (P388, Dose 25 mg/kg intraperitoneally, listed as 7,10-(OH)2, (CH2)2OH·2HCl, NH(CH2)2NH2, 25 mg/kg) was 154% and the “T/C × 100 (Percent)” value (P388, Dose 50 mg/kg intraperitoneally, listed as 7,10-(OH)2, (CH2)2OH·2HCl, NH(CH2)2NH2, 50 mg/kg) was 172%. For the same molecule, the “T/C × 100 (Percent)” value (P388, Dose 100 mg/kg intraperitoneally, listed as 7,10-(OH)2, (CH2)2OH·2HCl, NH(CH2)2NH2, 100 mg/kg) was 172% and 196%.

`CN(C)CCNCCn1nc2c3c(c(NCCNCCO)ccc31)C(=O)c1c(O)ccc(O)c1-2` [Example 50, 2-[2-[[2-(Dimethylamino)ethyl]amino]ethyl]-5-[[2-[(2-hydroxyethyl)amino]ethyl]amino]-7,10-dihydroxyanthra[1,9-cd]pyrazol-6(2H)-one] was tested, and the “T/C × 100 (Percent)” value (P388, Dose 6.25 mg/kg intraperitoneally, listed as 7,10-(OH)2, (CH2)2NH(CH2)2N(Me)2, NH(CH2)2NH(CH2)2OH, 6.25 mg/kg) was 191%, the “T/C × 100 (Percent)” value (P388, Dose 12.5 mg/kg intraperitoneally, listed as 7,10-(OH)2, (CH2)2NH(CH2)2N(Me)2, NH(CH2)2NH(CH2)2OH, 12.5 mg/kg) was 179% and 219% and the “T/C × 100 (Percent)” value (P388, Dose 25 mg/kg intraperitoneally, listed as 7,10-(OH)2, (CH2)2NH(CH2)2N(Me)2, NH(CH2)2NH(CH2)2OH, 25 mg/kg) was 226% and 169%.

In the case of `NCCCNCCCCNCCCNc1ccc2c3c(nn2CCNCCO)-c2c(O)ccc(O)c2C(=O)c13` [Example 69, 5-[(3-[[4-[(3-Aminopropyl)amino]butyl]amino]propyl]amino]-7,10-dihydroxy-2-[2-[(2-hydroxyethyl)-amino]ethyl]anthra(1,9-cd]pyrazol-6(2H)-one], the “T/C × 100 (Percent)” value (P388, Dose 6.25 mg/kg intraperitoneally, listed as 7,10-(OH)2, CH2CH2NHCH2CH2OH ·2.75HCl, NH(CH2)3NH(CH2)4NH(CH2)3NH2, 6.25 mg/kg) was 109% and the “T/C × 100 (Percent)” value (P388, Dose 12.5 mg/kg intraperitoneally, listed as 7,10-(OH)2, CH2CH2NHCH2CH2OH ·2.75HCl, NH(CH2)3NH(CH2)4NH(CH2)3NH2, 12.5 mg/kg) was 145% and 117%.
